Some of the results follow.
Tests used:
Assay in all cases: glycan array binding signal (z-score within array); higher = stronger binding
Settings in all cases: glycan notation: IUPAC condensed, linker removed
GlcNAc(b1-3)Man = biological target: GlcNAc(b1-3)Man
Summary of the method: (§1)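 Arrays were curated from the Consortium for Functional Glycomics database, 3228 in total, and kept only where the protein sequence was available. Binding is expressed as a within-array Z-score. This score was averaged across arrays of the same protein sequence at different concentrations or buffers and across linkers, and negative values can be read as non-binding.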

[1] = biological target: GlcNAc(b1-3)[GlcNAc(b1-4)][GlcNAc(b1-6)]GlcNAc
Summary of the method: as §1

[2] = biological target: GlcNAc(b1-3)[GlcNAc(b1-6)]Gal(b1-4)GlcNAc
Summary of the method: as §1

[3] = biological target: GlcNAc(b1-3)[GlcNAc(b1-6)]GalNAc
Summary of the method: as §1

[4] = biological target: GlcNAc(b1-4)Gal(b1-4)GlcNAc
Summary of the method: as §1

GlcNAc(b1-4)GlcNAc = biological target: GlcNAc(b1-4)GlcNAc
Summary of the method: as §1

[5] = biological target: GlcNAc(b1-4)GlcNAc(b1-4)GlcNAc
Summary of the method: as §1

[6] = biological target: GlcNAc(b1-4)GlcNAc(b1-4)GlcNAc(b1-4)GlcNAc(b1-4)GlcNAc
Summary of the method: as §1

[7] = biological target: GlcNAc(b1-4)GlcNAc(b1-4)GlcNAc(b1-4)GlcNAc(b1-4)GlcNAc(b1-4)GlcNAc
Summary of the method: as §1

[8] = biological target: GlcNAc(b1-4)[GlcNAc(b1-6)]GalNAc
Summary of the method: as §1

[9] = biological target: GlcNAc(b1-6)Gal(b1-4)GlcNAc
Summary of the method: as §1

GlcNAc(b1-6)GalNAc = biological target: GlcNAc(b1-6)GalNAc
Summary of the method: as §1

[10] = biological target: GlcNAc6S(b1-3)Gal(b1-4)GlcNAc
Summary of the method: as §1

Kdn(a2-3)Gal(b1-3)GalNAc = biological target: Kdn(a2-3)Gal(b1-3)GalNAc
Summary of the method: as §1

Kdn(a2-3)Gal(b1-3)GlcNAc = biological target: Kdn(a2-3)Gal(b1-3)GlcNAc
Summary of the method: as §1

Kdn(a2-3)Gal(b1-4)Glc = biological target: Kdn(a2-3)Gal(b1-4)Glc
Summary of the method: as §1

Kdn(a2-3)Gal(b1-4)GlcNAc = biological target: Kdn(a2-3)Gal(b1-4)GlcNAc
Summary of the method: as §1

[11] = biological target: Kdn(a2-3)Gal(b1-4)[Fuc(a1-3)]GlcNAc
Summary of the method: as §1

Kdn(a2-6)Gal(b1-4)GlcNAc = biological target: Kdn(a2-6)Gal(b1-4)GlcNAc
Summary of the method: as §1

[12] = biological target: Man(a1-2)Man(a1-2)Man(a1-3)Man
Summary of the method: as §1

[13] = biological target: Man(a1-2)Man(a1-2)Man(a1-6)[Man(a1-3)]Man
Summary of the method: as §1

Man(a1-2)Man(a1-3)Man = biological target: Man(a1-2)Man(a1-3)Man
Summary of the method: as §1

[14] = biological target: Man(a1-2)Man(a1-3)[Man(a1-2)Man(a1-6)]Man
Summary of the method: as §1

[15] = biological target: Man(a1-2)Man(a1-3)[Man(a1-2)Man(a1-6)]Man(a1-6)[Man(a1-2)Man(a1-2)Man(a1-3)]Man
Summary of the method: as §1

[16] = biological target: Man(a1-2)Man(a1-3)[Man(a1-2)Man(a1-6)]Man(a1-6)[Man(a1-2)Man(a1-2)Man(a1-3)]Man(b1-4)GlcNAc(b1-4)GlcNAc
Summary of the method: as §1

[17] = biological target: Man(a1-2)Man(a1-3)[Man(a1-6)]Man(a1-6)[Man(a1-2)Man(a1-3)]Man(b1-4)GlcNAc(b1-4)GlcNAc
Summary of the method: as §1

[18] = biological target: Man(a1-2)Man(a1-6)[Man(a1-3)]Man(a1-6)[Man(a1-2)Man(a1-2)Man(a1-3)]Man
Summary of the method: as §1

[19] = biological target: Man(a1-2)Man(a1-6)[Man(a1-3)]Man(a1-6)[Man(a1-2)Man(a1-2)Man(a1-3)]Man(b1-4)GlcNAc(b1-4)GlcNAc
Summary of the method: as §1

Man(a1-3)[Man(a1-6)]Man = biological target: Man(a1-3)[Man(a1-6)]Man
Summary of the method: as §1

[20] = biological target: Man(a1-3)[Man(a1-6)]Man(a1-6)[Man(a1-2)Man(a1-3)]Man(b1-4)GlcNAc(b1-4)GlcNAc
Summary of the method: as §1

[21] = biological target: Man(a1-3)[Man(a1-6)]Man(a1-6)[Man(a1-3)]Man
Summary of the method: as §1

[22] = biological target: Man(a1-3)[Man(a1-6)]Man(a1-6)[Man(a1-3)]Man(b1-4)GlcNAc(b1-4)GlcNAc
Summary of the method: as §1

[23] = biological target: Man(a1-3)[Man(a1-6)]Man(b1-4)GlcNAc(b1-4)GlcNAc
Summary of the method: as §1

[24] = biological target: Man(a1-3)[Man(a1-6)]Man(b1-4)GlcNAc(b1-4)[Fuc(a1-6)]GlcNAc
Summary of the method: as §1

Man(a1-6)Man = biological target: Man(a1-6)Man
Summary of the method: as §1

Man(b1-4)GlcNAc = biological target: Man(b1-4)GlcNAc
Summary of the method: as §1

MurNAc(b1-4)GlcNAc = biological target: MurNAc(b1-4)GlcNAc
Summary of the method: as §1

Neu5Ac(a2-3)Gal = biological target: Neu5Ac(a2-3)Gal
Summary of the method: as §1

B1: SP8524D-bot-399-27-399 (Bacteroides ovatus) (protein)
chain: DAKYDTLDTHAYIEEALSSTSQKVTVQATGESFTTLNVHLSNLSSTDNHYKLVTDQSVLDTYNHINGTGYIMLPKDYYTLPETITVKAGQYAADALSIALKAFSQEMMKSGESYALPVKLVLQDGSISPMENTGTFVILAESIIEFSAPMFVGAPSLKANKFTESPETYSQYTIEVRFQVANTADRDRAVFKNGGDDANFILLRFEDPQSDNENYKAHSLVQIVGRNRLYLNPSNSFKPNEWQHLALVCDGSNYRLYINGVDSGVLSIPTGATTFSDVNWFCLGDDSYSRWGNCKILMSEARIWSVVRSASQIQNNMTQVSPKSVGLEAYWRFNEGQGNVFEDATGKGHTLTTSATPTWIDGILSTDKSTEWK
- glycan array binding signal (z-score) (GlcNAc(b1-3)Man): -0.269
- glycan array binding signal (z-score) [1]: 0.26
- glycan array binding signal (z-score) [2]: -0.369
- glycan array binding signal (z-score) [3]: 0.154
- glycan array binding signal (z-score) [4]: -0.294
- glycan array binding signal (z-score) (GlcNAc(b1-4)GlcNAc): -0.423
- glycan array binding signal (z-score) [5]: -0.187
- glycan array binding signal (z-score) [6]: -0.202
- glycan array binding signal (z-score) [7]: 0.093
- glycan array binding signal (z-score) [8]: 0.225
- glycan array binding signal (z-score) [9]: 0.153
- glycan array binding signal (z-score) (GlcNAc(b1-6)GalNAc): -0.136
- glycan array binding signal (z-score) [10]: 0.154
- glycan array binding signal (z-score) (Kdn(a2-3)Gal(b1-3)GalNAc): -0.019
- glycan array binding signal (z-score) (Kdn(a2-3)Gal(b1-3)GlcNAc): -0.198
- glycan array binding signal (z-score) (Kdn(a2-3)Gal(b1-4)Glc): -0.253
- glycan array binding signal (z-score) (Kdn(a2-3)Gal(b1-4)GlcNAc): 0.347
- glycan array binding signal (z-score) [11]: 0.119
- glycan array binding signal (z-score) (Kdn(a2-6)Gal(b1-4)GlcNAc): 0.257
- glycan array binding signal (z-score) [12]: -0.375
- glycan array binding signal (z-score) [13]: -0.327
- glycan array binding signal (z-score) (Man(a1-2)Man(a1-3)Man): -0.1
- glycan array binding signal (z-score) [14]: -0.388
- glycan array binding signal (z-score) [15]: 0.077
- glycan array binding signal (z-score) [16]: 0.342
- glycan array binding signal (z-score) [17]: -0.243
- glycan array binding signal (z-score) [18]: -0.455
- glycan array binding signal (z-score) [19]: -0.312
- glycan array binding signal (z-score) (Man(a1-3)[Man(a1-6)]Man): -0.116
- glycan array binding signal (z-score) [20]: -0.169
- glycan array binding signal (z-score) [21]: 0.159
- glycan array binding signal (z-score) [22]: 0.039
- glycan array binding signal (z-score) [23]: -0.341
- glycan array binding signal (z-score) [24]: -0.365
- glycan array binding signal (z-score) (Man(a1-6)Man): -0.433
- glycan array binding signal (z-score) (Man(b1-4)GlcNAc): -0.291
- glycan array binding signal (z-score) (MurNAc(b1-4)GlcNAc): -0.116
- glycan array binding signal (z-score) (Neu5Ac(a2-3)Gal): -0.419
